Each structure is given as a SMILES string. In all, about 310,000 compounds went through this assay and about 2,200 (0.71%) showed an effect of 50% or more. Effects have a minus sign here. The list shows a part of the results.

human ether-à-go-go-related gene (hERG) potassium channel, sequence (Q12809 whole entry, looked up): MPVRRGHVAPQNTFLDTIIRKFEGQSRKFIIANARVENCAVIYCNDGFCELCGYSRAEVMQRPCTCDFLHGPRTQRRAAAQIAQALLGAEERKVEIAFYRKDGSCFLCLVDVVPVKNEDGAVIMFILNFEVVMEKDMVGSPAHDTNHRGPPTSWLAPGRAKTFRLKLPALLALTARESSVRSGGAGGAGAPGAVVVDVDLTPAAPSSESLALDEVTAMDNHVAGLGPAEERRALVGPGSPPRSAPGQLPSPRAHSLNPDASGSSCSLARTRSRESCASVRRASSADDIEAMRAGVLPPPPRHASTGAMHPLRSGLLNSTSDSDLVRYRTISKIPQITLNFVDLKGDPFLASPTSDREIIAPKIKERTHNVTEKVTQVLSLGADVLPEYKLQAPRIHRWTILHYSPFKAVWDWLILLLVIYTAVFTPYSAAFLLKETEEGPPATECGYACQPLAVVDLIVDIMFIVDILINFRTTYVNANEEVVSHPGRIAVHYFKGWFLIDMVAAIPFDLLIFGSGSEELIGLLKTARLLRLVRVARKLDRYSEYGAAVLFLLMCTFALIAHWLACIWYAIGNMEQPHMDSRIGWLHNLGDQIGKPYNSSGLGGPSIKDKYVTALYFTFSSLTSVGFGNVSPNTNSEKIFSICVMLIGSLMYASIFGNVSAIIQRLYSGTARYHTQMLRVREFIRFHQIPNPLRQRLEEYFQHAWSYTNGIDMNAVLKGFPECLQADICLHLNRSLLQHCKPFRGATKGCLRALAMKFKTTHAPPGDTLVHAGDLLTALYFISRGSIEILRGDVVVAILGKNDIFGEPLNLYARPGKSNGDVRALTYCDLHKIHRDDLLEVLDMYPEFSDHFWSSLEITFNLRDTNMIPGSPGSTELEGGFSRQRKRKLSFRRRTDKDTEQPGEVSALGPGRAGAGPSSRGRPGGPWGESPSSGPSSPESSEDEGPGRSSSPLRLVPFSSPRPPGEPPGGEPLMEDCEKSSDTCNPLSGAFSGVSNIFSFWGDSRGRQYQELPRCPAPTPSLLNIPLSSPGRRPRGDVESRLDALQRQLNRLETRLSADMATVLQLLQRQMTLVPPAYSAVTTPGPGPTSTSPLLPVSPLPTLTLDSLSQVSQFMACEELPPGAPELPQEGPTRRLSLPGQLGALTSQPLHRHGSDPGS

The test has as its target human ether-à-go-go-related gene (hERG) potassium channel (human, UniProt Q12809). Description: primary screen, population patch clamp on CHO cells stably expressing hERG.
In the case of `O=C(COC(=O)[C@@H]1CCCN1S(=O)(=O)c1ccccc1F)c1ccccc1`, the “hERG current change (%, negative = inhibition) at 1uM” value amounted to 4.79%. For the molecule `CCOc1ccc(OCCOC(=O)C2CCN(S(=O)(=O)c3ccc(C)c(C)c3)CC2)cc1`, the “hERG current change (%, negative = inhibition) at 1uM” value amounted to 6.68%. In the case of `COc1ccc2c(c1)Cc1sc(NC(=O)c3cccnc3)nc1-2`, the “hERG current change (%, negative = inhibition) at 1uM” value was 4.17%. `COc1cc([N+](=O)[O-])ccc1NC(=O)COC(=O)c1n[nH]c2ccccc12`: the “hERG current change (%, negative = inhibition) at 1uM” value is on record as 12.1%.

In the case of `CC1CCCC(NC(=O)c2ccc3snnc3c2)C1C` (centres unmarked), the “hERG current change (%, negative = inhibition) at 1uM” value was 16.7%. Consider `COC(=O)CNC(c1ccccc1Cl)c1cc(Br)ccc1NS(=O)(=O)c1ccc(C)cc1` (centres unmarked), for which the “hERG current change (%, negative = inhibition) at 1uM” value was found to be 5.02%.

Turning to `O=C(COC(=O)c1cccs1)Nc1ccccc1`, the “hERG current change (%, negative = inhibition) at 1uM” value was found to be 11.1%.

On to `O=C(NCCc1ccccc1)c1noc2c1CCCCC2`, for which the “hERG current change (%, negative = inhibition) at 1uM” value came to 11.7%.

For `COCCCNC(=S)NNC(=O)c1ccc(C(C)(C)C)cc1`, the “hERG current change (%, negative = inhibition) at 1uM” value stood at 7.5%.

With `Cc1cc(C(=O)N2CCCCCC2)cs1`, the “hERG current change (%, negative = inhibition) at 1uM” value is listed as 14.9%. Regarding `Cc1cccc(NC(=O)C(C)N2C(=O)C3C4CC(C(Br)C4Br)C3C2=O)c1` (centres unmarked), the “hERG current change (%, negative = inhibition) at 1uM” value is given as 12%.

In the case of `CSCCC(NC(N)=O)C(=O)Nc1cccc(C#N)c1` (centres unmarked), the “hERG current change (%, negative = inhibition) at 1uM” value was 5.2%. As for `O=[N+]([O-])c1cccc(-c2nnc(SCc3cccnc3)o2)c1`, the “hERG current change (%, negative = inhibition) at 1uM” value is on record as -25%. As for `COc1ccc(C2=CC(=O)C[C@H](c3ccc(F)cc3)C2)cc1F`, the “hERG current change (%, negative = inhibition) at 1uM” value was 0.56%. For `COc1cc(/C=C/C(=O)OCC(=O)NC(=O)NC(C)(C)C)ccc1OCC#N`, the “hERG current change (%, negative = inhibition) at 1uM” value amounted to 5.93%.

On to `Cc1ccc(SCC(=O)NCCC2=CCCCC2)cc1`, for which the “hERG current change (%, negative = inhibition) at 1uM” value was 7.24%.

Turning to `COC(=O)c1ccccc1NC(=O)CN1C(=O)C2CCCN2c2ncc(Cl)cc21` (centres unmarked), the “hERG current change (%, negative = inhibition) at 1uM” value was 2.06%. As to `Cc1cc(C)c2sc(N(CCCN(C)C)C(=O)c3ccc(S(=O)(=O)N(C)Cc4ccccc4)cc3)nc2c1.Cl`, the “hERG current change (%, negative = inhibition) at 1uM” value stood at 1.75%. For `O=C1N/C(=C/c2cccs2)C(=O)N1Cc1ccc(F)cc1`, the “hERG current change (%, negative = inhibition) at 1uM” value is 11.2%. For the molecule `CCC(C)NCCOc1cccc(Br)c1.O=C(O)C(=O)O` (centres unmarked), the “hERG current change (%, negative = inhibition) at 1uM” value is 5.61%. `O=C1/C(=C\c2ccc(O)cc2)SC(=S)N1c1cccnc1`: the “hERG current change (%, negative = inhibition) at 1uM” value was 15.9%. As for `Cc1ccc(S(=O)(=O)N2CCN(C(=O)Cn3nc(C)c([N+](=O)[O-])c3C)CC2)c(C)c1`, the “hERG current change (%, negative = inhibition) at 1uM” value was 3.75%. Take `Cc1c(-c2ccc(Br)cc2)[n+](=O)c2c(n1[O-])CCCCC2`: the “hERG current change (%, negative = inhibition) at 1uM” value is 10.8%.

For the molecule `O=C(COc1cc(Cl)c(Cl)cc1Cl)NC(=O)NC1CCCC1`, the “hERG current change (%, negative = inhibition) at 1uM” value is reported as 7%. For the molecule `CCOC(=O)c1c(S(=O)(=O)NCC(=O)N2CCN(c3ccccc3)CC2)c(C)n(C)c1C`, the “hERG current change (%, negative = inhibition) at 1uM” value came to 6.76%. With `Cc1cc(C)cc(NC(=S)NCc2ccc(F)cc2)c1`, the “hERG current change (%, negative = inhibition) at 1uM” value is recorded as 6.82%. For `CCc1cccc(CC)c1NC(=S)NCCc1c(C)[nH]c2ccccc12` the value was 7.68%; for `COc1cccc(CNC(=O)c2cc(=O)[nH]c3ccc(S(=O)(=O)N4CCOCC4)cc23)c1`, 15.3%; for `CC(OC(=O)c1ccccc1Oc1ccccc1)C(=O)NC1CC1` (centres unmarked), 13.8%. For `COc1ccccc1C(=O)C1CCCN(C(=O)c2cccc(-n3cccn3)c2)C1` (centres unmarked) the value was 9.07%.

Take `O=C(CNC(=O)c1ccc(Br)cc1)NCCc1nc2ccccc2[nH]1`: the “hERG current change (%, negative = inhibition) at 1uM” value came to 1.53%. As for `NS(=O)(=O)c1ccc(CNC(=O)c2ccc(S(=O)(=O)C(F)F)cc2)cc1`, the “hERG current change (%, negative = inhibition) at 1uM” value came to 6.17%.

For `CC(CCc1ccccc1)NC(=O)C1CCCN(c2nnc(-n3cccc3)s2)C1` (centres unmarked), the “hERG current change (%, negative = inhibition) at 1uM” value was -7.23%.

Regarding `CC1CCN(C(=O)CSc2nnc3ccc(-c4cccnc4)nn23)CC1`, the “hERG current change (%, negative = inhibition) at 1uM” value is reported as -2.88%. For `CCOC(=O)C1=C(C)OC(N)=C(C(=O)OC)C12C(=O)Nc1ccc(Br)cc12` (centres unmarked) the value was 14.6%; for `CN(C)C(=O)COC(=O)[C@H](Cc1ccccc1)NC(=O)c1ccco1`, 12.3%. For `Cc1ccc(S(=O)(=O)N(C)N=O)cc1` the value was 19.1%; for `Cl.Nc1ccc(CCN2CCCC2)cc1`, 11.8%; for `O=C(CSc1nc2ccsc2c(=O)n1Cc1ccc(C(=O)O)cc1)NCc1ccco1`, 5.71%. To `Cc1ccc(S(=O)(=O)CC(=O)N2CCN(c3cccc(C(F)(F)F)c3)CC2)cc1` belongs -8.8%; to `COc1cc(/C=C/C(=O)N2C(=O)c3cccc(N)c3C2=O)cc(OC)c1OC`, 8.6%; to `CCOc1cc(/C=N/NC(=O)COc2nc(C)cc(COC)c2C#N)ccc1O`, 1.99%. `COc1ccc(N2C(=O)CC(Sc3nc4c(cc3C#N)CCC4)C2=O)cc1` (centres unmarked): the “hERG current change (%, negative = inhibition) at 1uM” value worked out at 19.8%.

Take `Cc1nc(C(=O)NC(C)C)nn1-c1cc(Cl)cc(Cl)c1`: the “hERG current change (%, negative = inhibition) at 1uM” value came out at 19.8%.
